This note sets out measurements from US20240336672A1.

By EC50 is commonly meant the midpoint of the concentration-response curve.

Details in all cases: remark: other sources report otherwise
The target of assay [1] is T1, SARS-CoV-2 kappa variant B.1.617.1/3 RBD domain (SARS-CoV-2). In words: ELISA. Set-up: unit not given beside the values.
In assay [2] the target is T2, SARS-CoV-2 delta variant B.1.617.2/3 RBD domain (SARS-CoV-2). Description: ELISA. Also noted: unit not given beside the values. On the technique in general: In an ELISA, binding on a coated surface is turned into a signal by an enzyme label.
For assay [3], the target named is SARS-CoV-2 RBD domain, Wuhan (SARS-CoV-2). In words: ELISA. Also noted: unit not given beside the values.
Assay [4] concerns the target SARS-CoV-2 delta plus variant RBD (SARS-CoV-2). In words: ELISA. Set-up: unit not given beside the values.
Assay [5] concerns the target SARS-CoV-2 RBD (P.1) domain (SARS-CoV-2). Description: ELISA. Also noted: unit not given beside the values.
Assay [6] concerns the target SARS-CoV-2 RBD (B.1.1.7) domain (SARS-CoV-2). Description: ELISA. Set-up: unit not given beside the values.
In assay [7] the target is T1, SARS-CoV-2 kappa variant B.1.617.1/3 …. In words: RBD/ACE2 blocking ELISA.
Assay [8] concerns the target T2, SARS-CoV-2 delta variant B.1.617.2/3 …. In words: RBD/ACE2 blocking ELISA.
Assay [9] has as its target SARS-CoV-2 RBD (B.1.351) domain (SARS-CoV-2). In words: RBD/ACE2 blocking ELISA.
The target of assay [10] is SARS-CoV-2 RBD domain, Wuhan (SARS-CoV-2). In words: RBD/ACE2 blocking ELISA.
Assay [11] addresses SARS-CoV-2 delta plus variant RBD (SARS-CoV-2). Description: RBD/ACE2 blocking ELISA.
The target of assay [12] is SARS-CoV-2 RBD (P.1) domain (SARS-CoV-2). In words: RBD/ACE2 blocking ELISA.
The target in assay [13] is SARS-CoV-2 RBD (B.1.1.7) domain (SARS-CoV-2). In words: RBD/ACE2 blocking ELISA.
For assay [14], the target named is SARS-CoV-2 RBD (B.1.351) domain (SARS-CoV-2). Description: ELISA; unit from paragraph 452, none printed in the heatmap.
Assay [15] concerns the target SARS-CoV-2 omicron variant B.1.1.529 RBD domain (SARS-CoV-2). The assay is described as above.

B1: COV2-2196 (parental IgG1 version) (antibody, V domains shown)
VH: QMQLVQSGPEVKKPGTSVKVSCKASGFTFMSSAVQWVRQARGQRLEWIGWIVIGSGNTNYAQKFQERVTITRDMSTSTAYMELSSLRSEDTAVYYCAAPYCSSISCNDGFDIWGQGTMVTVSS
VL: [omitted - about 100 residues]GWTFGQGTKVEIK
Regarding B1, the AUC stood at 4 in [1]; 3 in [2]; 3 in assay [3]; 3 in assay [4]; 4 in [5]; 3 in [6]. The % binding inhibition in assay [7] worked out at 91%; in assay [8] it was 92%; in assay [9], 58%; in assay [10], 97%; in assay [11], 96%; in [12], 44%. In assay [13], this molecule came in with a % binding inhibition of 83%.

B2: Tixagevimab (antibody)
heavy chain: B1 VH
light chain: [omitted - about 100 residues]GWTFGQGTKVEIK
As to B2, the EC50 in [14] was found to be 0.006 µg/mL; in assay [15] it was 2.08 µg/mL.
